B1: TPR 5TU (parent)
chain: GGAUCUUCUCGAUCUAACAAAAAAGACAAAUCUGCCACAAAGCUUGAGAGCAUCUUCGGAUGCAGAGGCGGCAGCCUUCGGUGGCGCGAUAGCGCCAACGUUCUCAACUAUGACACGCAAAACGCGUGCUCCGUUGAAUGGAGUUUAUCAUG

Variants at the floor of the assay are shown more often than the library holds them. Where only a bound is given, the exact number is not on record here.

This data set covers variants of B1. Put plainly: polymerase ribozyme fitness, log enrichment relative to wild type (log ratio); higher = more active; in vitro selection for triplet polymerase activity. The method, boiled down: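 To select mutant libraries of each subunit of a heterodimeric triplet polymerase ribozyme, built by PCR and transcribed, each was annealed with a biotinylated primer, partner subunit and triplets, then incubated frozen at −7 °C. Extended constructs were gel-excised, captured on streptavidin beads and amplified by RT-PCR, in one round carried out in triplicate. Illumina sequencing of input and output libraries kept genotypes with ≥10 input reads and ≥1 read per output. Fitness is the base-2 logarithm of genotype enrichment relative to wild-type enrichment, from inverse-variance-weighted replicate averages.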
Regarding GGAUCUUCUCCAUCUAACAAAAAAGACAAAUCUGCCACAAAGCUUGCGAGCAACUUCGGAUGCAAAGGCGGCAGGCUUCGGUGCCGCGAUAGCGCCAACGUUCUCAACUAUGACACGCAAAACGCGUGCUCCGUUGAAUGAAGUUUAUCAUG [G11C A47C U53A G65A C75G G84C G141A], the “polymerase ribozyme fitness (log ratio)” value is at most -4.2.
Consider GGAUCUUCUCUAUCUAACGAAAAAGACAAAUCUGCCACAAAGCUUGAGAGCAUCUUAUGAUGCAGAGGCGGCAGCCUUCAGUGGCGCGAUAGCGCCAACGUUCUCAACUAUGAUACGCAAAACGCGUGCUCCGUUGAAUCGAGUUUAUCAUG [G11U A19G C57A G58U G80A C114U G140C], for which the “polymerase ribozyme fitness (log ratio)” value was at most -4.2.
As for GGAUCUUCUCCAUCUAACAAAAAAGACAAAUCUGCCACAAAGCUUGAGGGCAUCAUCGGAUGCGGAGGCGGCAGCCUUCGGUGGCGCGAUAGUGCCAACGUUCUCAACUAUGACACGCAAAACGCGUGCUCCGUUGAAUUGAGUUUAUCAUG [G11C A49G U55A A64G C93U G140U], the “polymerase ribozyme fitness (log ratio)” value is at most -4.2.
Take GGAUCUUCUCUAUCUAACUAAAAAGACAAAUCUGCCACAAAGCUUGAGAGCAUCUUCGGAUGCAGAGGCGGCAGCCUUCGGUGGCGCGAUAACGCCAACAUUCUCAACUGUGACACGCAAAACGCGUGCUCCAUUGAAUGGAGUUUAUCAUG [G11U A19U G92A G100A A110G G133A]: the “polymerase ribozyme fitness (log ratio)” value is at most -4.2.
Consider GGAUCUUCUCCAUCUAACAAAAAAGACAAAUCUGCCACAAAGCUUGAGAGCAUCUUCGGGUGCAGAGGCGGCAGCCUUCGGUGACGCGGUAGCGCCAACGUUCUCAACUAUGACAUGCAAAACGCGUGCUCCGUUGAAUGGAGUUUUACAUG [G11C A60G G84A A89G C116U A147U U148A], for which the “polymerase ribozyme fitness (log ratio)” value is at most -4.2.
In the case of GGAUCUUCUCUAUCUAACAAAACAGACAAACCUGCCACAAAGCUUGAGAGCAUCUUCGGAUGCAGAGGCGGCAGCCUUCGGUGACGCGAUACCGCCAACGUUCUCAACUAUGACACGCAAAACGCGUGCUCCGUUGAAUGGAGUUUAUCAUG [G11U A23C U31C G84A G92C] it was at most -4.2.
In the case of GGAUCUUCUCCAUCUAACAAAAAAGACAAAUCUGCCACAAAGCUUGAGAGCAUCUUCGGAUGCAGAGGCGGCAGCCUUCGGUGGCGUGAUAGCGCCAACGUUCUCAGCUAUGACAGGCAAAACGCGUGCUCCGUUGAAUGGAGUUUAUCAUG [G11C C87U A107G C116G] it was at most -4.2.
For GGAUCUUCUCUAUCUAACACAAAAGACAAAUCUGCCACAAAGCUUGAAAGCAUCUUCGGAUUCAGAGGCGGCAGCCUUCGGUUGCGCGAUAGCGCCAACGUUCUCAACUAUGACACGCAAAACGCUUGCUCCGUUGAAUGGAGUUUAUCAUG [G11U A20C G48A G62U G83U G126U], the “polymerase ribozyme fitness (log ratio)” value was at most -4.2.
Take GGAUCUUCUCCAUCUAACAAAAAAGACAAAUCUGCCACACAACUUGAGAGCAUCUUCUGUUGCAGAGGCGGCAGCCUUCGGUGGGGCGUUAGGGCCAACGUUCUCAACUAUGACACGCAAAACGCGUGCUCCGUUGAAUGGAGUUUAUCAUG [G11C A40C G42A G58U A60U C85G A89U C93G]: the “polymerase ribozyme fitness (log ratio)” value is at most -4.2.
To GGAUCUUCUCCAUCUAACAAAAAAGACAAAUCUGCCACAAAGCUUGAGAGCAUCUUCGAAUGCAGAGGCGGCAGCCUUCCGUGGCGCGAUAGCGCCAACGUUCUCAACUAUGACACGCAAAACGCGUGCUCCGUUGAAUGGAGUUUAUCAUG [G11C G59A G80C] belongs at most -4.2; to GGAUCUUCUCUAUCUAACAAAAAGGACAAAUCUGCCACAAAGCUUGAGAUCAUCUUUGGAUGCAGAGGCGGCAGCCUUCGGUGGCGCGAUAGCGCCAACGUGCUCAACUAUGACACGCAAAACGCGUGCUCCGUUGAAUGGAGUUUAUCAUG [G11U A24G G50U C57U U102G], at most -4.2.
Turning to GGAUCUUCUCCAUCUAACAAAAAAGACAAAUCUGCCACAACGCUUGAGAGCAUCUUCGGAUGCAGCGGCGGCAGCCUUCGGUGGUGCGAUAGCGCCAACGUUCUCAACUAUGACACGCAAAUCGCGUGCUCCGUUGAAUUGAGUUUAUCAUG [G11C A41C A66C C85U A122U G140U], the “polymerase ribozyme fitness (log ratio)” value is at most -4.2.
In the case of GGAUCUUCUCCAUCUAACAAAAAAGACAAAUCUGCCACAAAGCUUGAGAUCAUCUUCGGAUGCAGAGGCGGCAGCCUUCGGUGUCGCGAUAGCGCCGACGUUCUCAACUAUGACACGCAAAACGCGUGCUCCGUUGAAUGGAGUUUAUCAUG [G11C G50U G84U A97G] it was -3.09; in that of GGAUCUUCUCCAUCUAACAAAAAAGACAAACCUGCCACAAAGCUUGAGAGCAUCUUCGCAUGCAGAGGCGGCAGCAUUCGGUGUCGCGAUAGCGCCAACGUUCACAUCUAUGACACGCAAAACGCGUGCUCCGUUGAAUGGAGUUUAUCAUG [G11C U31C G59C C76A G84U U104A A107U], at most -4.2; in that of GGAUCUUCUCCAUGUAACAAAAAUGACACGUCUGCCACAAAGCUUGAGAGCAUCUUCGGAUGCAGAGUCGGCAGCCUUCGGUGGGGCGAUAGCGCCAACGUUCUCAACUAUGACACGCAAAACUCGUGCUCCGUUGAAUGGAGUUUAUCAUG [G11C C14G A24U A29C A30G G68U C85G G124U], at most -4.2.
Consider GGAUCUUCUCCAUCUAACAAAAAAGACAAAUCUGCCACAAAGCUUGAGAGCAUCUACGGAUGCAGAGGCGGCAGCCUUCGGUGGCGCGAUAGCGCCAACGUGCUCAACUAUGACAAGCAAAACGCGUGCUCCGUUGAAUGGAGUUUAUCAUG [G11C U56A U102G C116A], for which the “polymerase ribozyme fitness (log ratio)” value was at most -4.2.
Consider GGAUCUUCUCCAUCGAACAAAAAAGACAAAUCUGCCACAAAGCUUGAGAGCAUCUUCGUAUGCAGAGGCGGCAGCAUUCGGUGGGGCGAUAGCGCCAACGUUCUCAACUAUGACACGCAAAACGCGUGCUCCGUUGAAUGGAGUUUAUCAUG [G11C U15G G59U C76A C85G], for which the “polymerase ribozyme fitness (log ratio)” value was at most -4.2.
In the case of GGAUCUUCUCCAUCUAAGAAAACAGACAAAUCUGCCACAAAGCUUGAAAGCAUCUUCGGAUGCAGAGGCGGCAGCCUUCGGUGGCGCUAUAGGGCCAACGUUCUCAACUAUGACACGCAAAACGCGUGCUCCGUUGAAUGGAGAUUAUCAUG [G11C C18G A23C G48A G88U C93G U144A] it was at most -4.2.
As to GGAUCUUCUCUAUCUACCAAAAAAGACAAAUCUGCCUCAAAGCUUGAGAGCAUCUUCGGAUGCAGAGGCGGCAGCCUUCGGUGGCGCGAUAGCGCCAACGUUCUCAACUAUGACACGCAAUUCGCGUGCUCCGUUGAAUGGAGUUUAUCAUG [G11U A17C A37U A121U A122U], the “polymerase ribozyme fitness (log ratio)” value is -3.25.

The values are drawn from the RNAGym collection of RNA variant scans (doi:10.1073/pnas.2313332121).
